From the supplement of paper PMC11417369 come the findings set out here.

± gives the standard deviation of the averaged measurements. The list shows a part of the results.

This assay has as its system PfAP2-LT AP2 domain (GST-tagged). Nature of the assay: gcPBM binding intensity (ln(normalized median fluorescence intensity)); higher = stronger DNA binding. Summed up: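 GST-tagged P. falciparum DNA-binding domains produced in E. coli were incubated for 1 h on an Agilent 4 × 180k array of primer-extended double-stranded 36-bp intergenic genomic probes with negative controls. Binding intensity is the highest Masliner-normalised natural-log median intensity across replicate spots of either probe orientation, with bound protein detected by Alexa488 anti-GST antibody at 488 nm.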
On to “AAAAGCTTAAAAAATTGTACATAAATGAATAAATAT [XGTACX_site5201]”, for which the “gcPBM binding intensity (ln)” value amounted to 8.77 ± 0.44. With “TAAACCTATTATACGGGTACTTATTTGATTCTTATA [XGTACX_site5292]”, the “gcPBM binding intensity (ln)” value was found to be 8.69 ± 0.47. With “ACAAATGGAACTCCTACAAAAAATTTCCATAATATT [XGTACX_negctrl_site132]”, the “gcPBM binding intensity (ln)” value was 8.56 ± 0.4.

“ACCACCATATAACATACATGCATCTTTTTTCCCTTC [TGCATGCA_site583]”: the “gcPBM binding intensity (ln)” value was 9.23 ± 0.52. For “GAACTCATTTAATATTGTACATTCTGATATTTTTTA [XGTACX_site5995]”, the “gcPBM binding intensity (ln)” value stood at 8.78 ± 0.48. To “TCTTGTTAATATATTAAATATATCTATAAATATATA [XGTACX_negctrl_site486]” belongs 8.44 ± 0.4; to “TATATACATACATATACACACATATATATATATATA [CACACA_site401]”, 9.72 ± 0.21; to “TCATTGTTTAATATGTGTCCTCAAAATTTGTTATAT [XGTACX_site677]”, 8.69 ± 0.34.

Consider “TCATATTCCAAGTGTACACATAAATCCCTAATAACA [CACACA_site5167]”, for which the “gcPBM binding intensity (ln)” value turned out to be 8.84 ± 0.33. The figure for “GTATAAAATATTGATTGTACTTTATTCATTTTTTTT [XGTACX_site2520]” is 8.6 ± 0.67; for “ACAATTCATTAGAATTGTACAAAAGGATGAAGCGAA [XGTACX_site5242]” it is 9.01 ± 0.45; for “ATTTAATACAAATACACACACAAATATGTACCTATA [CACACA_site7718]” it is 9.44 ± 0.29. Take “ATTTTTTTTTTTTAATTTGATATTTGCGTTTATATA [CACACA_negctrl_site1305]”: the “gcPBM binding intensity (ln)” value was found to be 8.8 ± 0.52. The figure for “CATTTAGTTCATACTATGCACACTACGTATATTTTT [CACACA_site2694]” is 9.2 ± 0.38; for “TGTATAAAAAACTAATGTACAAATGACAAGATATCT [XGTACX_site4600]” it is 8.84 ± 0.41; for “AATGCACAGCTCTTAGGCAAAAGTGGGTATTTACAC [GTGCAC_negctrl_site579]” it is 8.81 ± 0.52. The figure for “AAAAAATGTTAAAAAAGTACTTTCTTTATTTAATAA [XGTACX_site2908]” is 8.32 ± 0.56; for “AGACGTAATAATTGTTGTACATAAAAAAATAAGAAA [XGTACX_site7594]” it is 8.88 ± 0.59; for “AACAATTGTTAAAGGTGTACCATATGTATATAAGAA [XGTACX_site5723]” it is 9 ± 0.45.

For “ATGATATTATAAAAAAGTACATATGTATATAATTAT [XGTACX_site7652]”, the “gcPBM binding intensity (ln)” value turned out to be 9.1 ± 0.26. The figure for “TGTGTTAGCAAAAAAGTGCACAGGGAAAAAAAAATA [GTGCAC_site9397]” is 8.91 ± 0.5; for “AATATATGATAATTTTTTTTTTTTTTTTTTAAATAT [CACACA_negctrl_site452]” it is 8.13 ± 0.5; for “TATTCTTATTATTACACACACAATTATATTTACCCC [CACACA_site6381]” it is 9.29 ± 0.32. Take “TATATATATATAATAGCATGCTATATTATATATATA [TGCATGCA_site886]”: the “gcPBM binding intensity (ln)” value is 8.59 ± 0.3. Consider “TATTTTTTAATTGTTTCACACATTATTTTTTACATA [CACACA_site6078]”, for which the “gcPBM binding intensity (ln)” value worked out at 8.86 ± 0.36. To “TTAACATAAATTGTGTCATTTTTTTTTTTTTTTTTA [CACACA_negctrl_site1221]” belongs 8.3 ± 0.54; to “TACACCCAGAAATGCACACACATATATATATATATA [CACACA_site5289]”, 10.26 ± 0.071.

Turning to “ATAATATATATATATATGTATGTATATATGTATGTA [GTGCAC_negctrl_site575]”, the “gcPBM binding intensity (ln)” value was 8.97 ± 0.43. The figure for “ATGAACATGTGACAATGTACATTTATATCTTAAGAA [XGTACX_site4960]” is 8.97 ± 0.53; for “ATCAGGCAAAATTTTTGTACATATATATTTTATTTT [XGTACX_site1245]” it is 8.94 ± 0.35. For the sequence TTATAAATGTGCGTAGTGCATAAACAAAAAAAAAAT, the “gcPBM binding intensity (ln)” value turned out to be 9.04 ± 0.52.

Turning to “ATTTTTTTTTTTTTTTTTTTTTTTTATGAATGTTAT [CACACA_negctrl_site1319]”, the “gcPBM binding intensity (ln)” value came to 8.57 ± 0.61.

“AGATTTCAAGGTAATAGATCAATTTTAATTTGTAAA [CACACA_negctrl_site514]”: the “gcPBM binding intensity (ln)” value turned out to be 8.31 ± 0.57. To “ATTTTTTTTTTTTTTTTTTTTTTTTTTTTTTTTTTT [CACACA_negctrl_site1364]” belongs 8.935 ± 0.035; to “TTAACACATTTTATGTGTACTCATATGATTTAAAAT [XGTACX_site7516]”, 8.69 ± 0.4. For “TTAAAATGAAGAAGTGCACACATATATATATTTATA [CACACA_site8063]”, the “gcPBM binding intensity (ln)” value stood at 9.11 ± 0.41.

With “CTAATAAAAAAAAAAAGTACATATGACAATATAAAG [XGTACX_site1598]”, the “gcPBM binding intensity (ln)” value came out at 8.91 ± 0.56.

Consider “AATTTTTTTTTCTTTTGTACGTAAATATGTGTAGGC [XGTACX_site215]”, for which the “gcPBM binding intensity (ln)” value is 8.69 ± 0.43. To “TATAAACAGACGAAAACACACATATGTAGATATATA [CACACA_site6371]” belongs 9.22 ± 0.47. To “TATATATTAGTGTTGACACACACAAAAAAAAAAAAA [CACACA_site8392]” belongs 8.94 ± 0.5; to “AAAAAAAGTAAAAAGTGTACTTAATATATATATATA [XGTACX_site838]”, 8.86 ± 0.35.

Consider “TGTAGCATTTAATTCACACATAAAAAATGTATCCAT [CACACA_site4986]”, for which the “gcPBM binding intensity (ln)” value was found to be 8.63 ± 0.4.

Regarding “TATATGTGATAACACGCACACAAATGTATATAATTT [CACACA_site2593]”, the “gcPBM binding intensity (ln)” value turned out to be 9.38 ± 0.35. To “AAAAAAAAAAAACATACACACATTGAACTTTTATAT [CACACA_site3250]” belongs 8.88 ± 0.45.
